# Reference: the supplement of paper PMC11417369
# The other results are listed elsewhere or left out.
# Tested on: PF3D7_0420300 AP2 domain 1 (GST-tagged)
# Assay: gcPBM binding intensity (ln(normalized median fluorescence intensity)); higher = stronger DNA binding
# Method in brief: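 Using an Agilent 4 × 180k array, primer-extended double-stranded 36-bp intergenic genomic probes and negative controls were exposed for 1 h to GST-fused P. falciparum DNA-binding domains expressed in E. coli. Binding was carried out in 1× PBS with 1% milk, 0.2 mg/ml BSA, 0.5% salmon testes DNA and 0.03% Triton X-100, and protein was detected with Alexa488 anti-GST antibody and a 488 nm scan. Binding intensity is the highest Masliner-normalised natural-log median intensity across replicate spots of either probe orientation.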
row,Sequence,gcPBM binding intensity (ln)
1,ATATGTATATATAAGGTGCAGAAAGGTGGGCAAAAG,9.75
2,TAAATACAGATATATACACACATATATATATTTTAT [CACACA_site5970],9.58
3,TCATATATTTTAATATGTACACATTTTTTTGGTATA [XGTACX_site8695],9.35
4,TTTTTCTTTATTAGCACACATAATATTATATATGTG [CACACA_site2629],9.16
5,TACAGACTAAAATACACACACACACGCACATATATA [CACACA_site7875],10.2
6,TAATAATAAAAATAAACACACATATATATGTATATA [CACACA_site2853],9.49
7,AAATTATATTCAAGTGCATGTAACTTATTATTATAT [TGCATGCA_site526],9.14
8,ATATTTATTTATTTATGTACGCACACAGTTGATATT [XGTACX_site5808],9.63
9,CACTATATAAGAACCTGTACTCAATTTTGCAATATA [XGTACX_site7238],9.22
10,TATATTTTCCTGCAAACACACATATAAATGTGTAGA [CACACA_site533],9.18
11,AAAATAAAATAAAAGTGTACGTTTTAAGAACATTGA [XGTACX_site2382],9.31
12,AACATGCTCAACTTTTTTTTTTTTTTTTTTTTTTTT [CACACA_negctrl_site1617],9.21
13,GTAAAAATAAAAACTGGTACACAAGTTGTTATAAAA [XGTACX_site502],9.27
14,CTTTTTTGTTAAAGTGTGCGCAATAGTTATAGACTT [GTGCAC_site9670],9.19
15,TATAATCAATATGTAACACACAAAAGTTATATACTT [CACACA_site7368],9.43
16,AATCTTAAAAATATATGTACTAAAAAAAAAAAAAAT [XGTACX_site6195],9.27
17,TATATATATATATATACACACTATATAATTCAAACA [CACACA_site4712],9.43
18,ATGAATAAATTAAAAATGCACACTTTGATGGGTACA [CACACA_site2157],9.43
19,AAACTTGTAAGAAACACACACACACCCATATATATA [CACACA_site797],10.1

row,Sequence,gcPBM binding intensity (ln)
1,AAATTGGGGCTTGTTACACACTTAGTGGGAGTTCTA [CACACA_site4485],9.44
2,TATACCAGTTTTAAAAGTACTTGTGCATAAAAAATA [XGTACX_site4794],9.14
3,TTACGATTATACAAAAGTACATGTATTACACAATAT [XGTACX_site5138],9.33
4,AAAAATTATAGAAAAGTGCAATACATGTTACACCAT,9.28
5,TACAATAAGGATAAGTGTACATATGTGCATACATAT [XGTACX_site7188],9.42
6,CATATAGCATAATCATGTACACATACAACAAATAGG [XGTACX_site1589],9.63
7,TTTTTATATTTAATGTGTCCTCACTTAAAAGGATGA [XGTACX_site2744],8.77
8,TATAATAATTATACATGTACACATTATTTGGATAAA [XGTACX_site5552],9.17
9,ATTCTCCAAGTTTGATGTACACATATGACGACGGCG [XGTACX_site4912],9.12
10,AATATATTTTTTGGTTGTACAGAGATCTTTGTAGAA [XGTACX_site1707],9.01
11,TTGTAATAAAGAATTAAAAAAAAATATATACAGGTA [GTGCAC_negctrl_site150],9.22
12,TATACCTTTTTATTCACACATATATGTCATATGTCA [CACACA_site5423],9.4
13,TATTACTTATAAATTACACACAAATGATTGAACATT [CACACA_site2259],9.44
14,TTAATTACATGTAATTGTACTTAATTATAAGACATT [XGTACX_site464],8.99
15,TTTTACCTAAATATCACACATATTTAAATATATATA [CACACA_site5597],9.24
16,TTAAAATAAAGAAAATGTACATAAATAAAAATAAAG [XGTACX_site2280],9.36
17,CAACTAATATTAAAACGTACATAAATATTTAACAGA [XGTACX_site625],9.46
18,ATCACATATATATATAATATATATATGTATATATTT [GTGCAC_negctrl_site249],8.98
19,ATATATATATATATATGTACATATATTTTTATTTAT [XGTACX_site3508],9.01

row,Sequence,gcPBM binding intensity (ln)
1,AAAAAAAATATATATGCACACACAAAAAAACAAATT [CACACA_site8349],9.87
2,AACATATATATATATACATGCATATGAACAACGAAT [TGCATGCA_site93],9.62
3,TATAAAAATGTTTACACACACACATAAATATATTTT [CACACA_site2512],9.93
4,TTTTTTTTTTTTCTGAGTACGAAAAATAGAGATAGA [XGTACX_site3825],8.67
5,TGTATAAATATAATCACACATATATATATATATATA [CACACA_site4365],9.15
6,AAGTTACAAAATCAAAAGGAAAAAATATAAAATAAT [CACACA_negctrl_site561],9.42
7,CAAGAAAATTGACACACACACATATTTATATTTATA [CACACA_site7766],10
8,AAAAAAAAATACATATGTACTTATGTATAATGTTGT [XGTACX_site8104],9.33
9,ATTATACCACCCGATATACACACTTGTAGACATCTT [CACACA_site7944],9.51
10,CATGTTATGATTCCATGTACTTATAGCATTAAAAAA [XGTACX_site8939],8.95
11,TTTTTTTAATTAGTTTGTACATATTGTTATAATATA [XGTACX_site6294],9.23
12,ATAAAAAGGAGACACACACACACACGCATATTTATA [CACACA_site6551],10.3
13,TATATTAAACCATGTAGTACCTTGAATAAATATTAT [XGTACX_site8254],9.23
14,ATAAGCTCATGCAGGTGTACACAAAAAGAAAAAAAA [XGTACX_site2433],9.29
15,ATAATGAAAAGGAACATACACACCCCATATAAATAT [CACACA_site3442],9.86
16,AAATTAAATGTAAGCACACATAAATTATACTCATAT [CACACA_site5782],9.36
17,ACTTATACAAAATGTGCATGTTATATTTACAATAAT [TGCATGCA_site108],9.4
18,GGAATAGTAATATATACACACAAATACATATATATA [CACACA_site67],9.8
19,TTTATTTTTTAATGATGTACTATTTATCCAGAAAAG [XGTACX_site7750],8.99
